Measurements reported in PubChem BioAssay AID904 (National Center for Advancing Translational Sciences (NCATS), 2007).
Among all 55,000 compounds or so, about 530 (0.96%) were called active. Inconclusive results, whose numbers are uncertain, are shown with a selection of clear calls. Calls come from the whole dose curve; as a rule, active = well fitted cell-killing curve with a large enough effect; inconclusive = small, poorly fitted or top-dose-only effect; inactive = no such curve, though single readings can be large or run the other way. Potencies beside an inconclusive call are fits to weak or partial responses and may not hold up.

Test: qHTS Screen for Compounds that Selectively Target Cancer Cells with p53 Mutations: Cytotoxicity of p53 Null Cells at the Nonpermissive Temperature; note: nearly all actives have a fitted effect of over 50% in size
Details: H1299 p53-null (neo) cells, 39C, ATPlite viability, 24 h; series mostly up to 46.1 µM
In short: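 Luminescent ATP signal reported cell survival after H1299 lines (neo, p53 null; or p53 A138V) received up to 46 uM compound and 24 hr incubation at 39C.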
Potency is the fitted concentration of half-maximal effect; tags give direction and shape of the fitted curve.

SMILES	Potency
O=C(CN1C(=O)C(c2ccc(F)cc2)=NC12CCCCCC2)Nc1ccc(F)c(Cl)c1	inconclusive: 10 µM [cytotoxic, partial curve]
COc1cccc(NC(=O)CSc2nc3ccc(NC(=O)c4ccco4)cc3s2)c1	inconclusive: 10 µM [cytotoxic, partial curve]
Cc1ccc(-n2c(-c3cccc(C)c3)nc3c(cnn3-c3ccccc3)c2=O)cc1	inactive
O=C(NCCCN1CCN(c2ccccc2)CC1)c1ccc2nc(CCc3ccccc3)oc2c1	inactive
CCc1nn2c(=O)cc(COC(=O)c3ccccc3NC(=O)c3ccc(C(C)(C)C)cc3)nc2s1	inconclusive: 0.0501 µM [cytotoxic, single point]
Cc1ccc(C2c3[nH]c4ccccc4c3CCN2C(=O)CSc2ccccc2)cc1 (stereo not drawn)	inconclusive: 0.0079 µM [cytotoxic, full curve, poor fit]
COc1ccc(OC)c(NS(=O)(=O)c2ccc3c(c2)CCCN3C(=O)C2CCC2)c1	inactive
COc1ccc(CNC(=O)C2=Cc3cccc(OC)c3OC2)cc1OC	inconclusive: 1.58 µM [cytotoxic, partial curve]
Cc1nc2ccn(Cc3cccs3)c(=O)c2cc1C(=O)NCc1ccc(Cl)cc1	inconclusive: 0.1 µM [cytotoxic, full curve, poor fit]
O=C(/C(C=Nc1ccc(F)cc1)=C(/O)c1ccco1)C(F)(F)F	inconclusive: 4.47 µM [cytotoxic, single point]
CCS(=O)(=O)c1ncc(Cl)c(C(=O)Nc2c(C(=O)c3ccc(C)cc3)oc3ccccc23)n1	inactive
COc1ccc(Cl)cc1NC(=O)NCc1noc2ccccc12	inconclusive: 35.5 µM [cytotoxic, single point]
O=C(COc1ccccc1F)Nc1ccc2nc(SCC(=O)N3CCCC3)sc2c1	inconclusive: 31.6 µM [cytotoxic, single point]
CC(=O)Nc1ccc(S(=O)(=O)Nc2cccc(-c3ccc(N4CCCCCC4)nn3)c2)cc1	inconclusive: 0.251 µM [cytotoxic, full curve, poor fit]
COc1ccc(-c2nc3ccccc3s2)cc1NC(=O)c1cccc([N+](=O)[O-])c1C	inconclusive: 12.6 µM [cytotoxic, partial curve]
CCCOc1ccc(C2c3c(-c4ccccc4O)n[nH]c3C(=O)N2Cc2cccnc2)cc1 (stereo not drawn)	inconclusive: 15.8 µM [cytotoxic, single point]
COc1ccc(-c2cc3nc(C)c(CCC(=O)N4CCN(c5ccccc5F)CC4)c(C)n3n2)c(OC)c1	inactive
Cc1ccc(NC(=O)Cn2c(=O)oc3cc(S(=O)(=O)N4CCCCC4)ccc32)c(C)c1	inactive
Cc1ccc(S(=O)(=O)NCC(Nc2cccc(Cl)c2)c2ccccc2)cc1 (stereo not drawn)	inconclusive: 15.8 µM [cytotoxic, single point]
Cc1cc(Nc2cccc(Cl)c2)nc2ccc(NC(=O)c3cccc(N(C)C)c3)cc12	inactive
CCOc1ccccc1C(=O)Nc1ccc2nc3c(c(Nc4ccc(OC)c(OC)c4)c2c1)CCCC3	inconclusive: 10 µM [cytotoxic, partial curve]

SMILES	Potency
Cc1cccc(N2CCN(c3ccc(NC(=O)c4ccccc4)cc3C(=O)O)CC2C)c1 (stereo not drawn)	inactive
Cc1cccc(OC(=O)c2cc(-c3ccc4c(c3)OCCO4)on2)c1C	active: 31.6 µM
CSc1ncc(Cl)c(C(=O)Nc2c(C(=O)c3ccc(C)c(F)c3)oc3ccccc23)n1	inconclusive: 5.01 µM [cytotoxic, single point]
Cc1nc2c(C(=O)NCc3ccccc3Cl)c[nH]n2c(=O)c1Cc1cccc(Cl)c1	inconclusive: 11.2 µM [cytotoxic, single point]
Cc1cccc(NC(=O)c2oc3c(c2C)-c2[nH]ncc2CC3)c1C	inconclusive: 28.2 µM [cytotoxic, single point]
Cc1cc(N2CCN(C)CC2)nc2ccc(NC(=O)Nc3ccccc3Br)cc12	inconclusive: 3.98 µM [cytotoxic, full curve, poor fit]
CN(CC(=O)Nc1cccc(Cl)c1)S(=O)(=O)c1ccc2[nH]c3c(c2c1)CCCC3	inconclusive: 12.6 µM [cytotoxic, partial curve]
CCCOc1ccc(-c2nc3ccccc3c(=O)o2)cc1	active: 5.01 µM
O=C(C1CCC1)N1CCc2cc(S(=O)(=O)N3CCN(c4ccccc4)CC3)ccc21	inconclusive: 1 µM [cytotoxic, full curve]
O=C(/C(C=Nc1ccc(Br)cc1)=C(/O)c1ccco1)C(F)(F)F	inconclusive: 12.6 µM [cytotoxic, single point]
COc1ccccc1OCC(=O)Nc1nnc2n1CCS2	inactive
O=C(CSc1nccn1-c1cccc(Cl)c1)Nc1cccc(C(F)(F)F)c1	inactive
Cc1ccc(NC(=O)CSc2nc(-c3ccc(F)cc3)nc3c2Cc2c(CO)cnc(C)c2O3)cc1C	inconclusive: 2 µM [cytotoxic, full curve]
CCc1ccc(OCC(=O)N(Cc2ccc(C)cc2)Cc2ccco2)cc1	inactive
CCOc1ccccc1CNC(=O)c1cccc(NC(=O)c2nsc3ccccc23)c1	inconclusive: 0.01 µM [cytotoxic, full curve, poor fit]
CCCc1oc2ccc(NS(=O)(=O)c3ccc(OC)cc3)cc2c1C(=O)OCC	inconclusive: 12.6 µM [cytotoxic, single point]
COc1ccc(N2CCN(S(=O)(=O)CCNC(=O)Cc3ccc(-c4ccccc4)cc3)CC2)cc1	inactive
Cc1ccc(-c2nnn(CC(=O)N(c3ccc(F)cc3)C(C(=O)NC(C)(C)C)c3ccco3)n2)o1 (stereo not drawn)	inconclusive: 0.005 µM [cytotoxic, full curve, poor fit]
COCCNC(=O)Cn1c(=O)n(-c2ccc(C)c(C)c2)c(=O)c2c3c(sc21)CCCCC3	inconclusive: 0.398 µM [cytotoxic, full curve, poor fit]
N#Cc1ccccc1NC(=O)C(=O)NCC(c1cccnc1)N1CCc2ccccc2C1 (stereo not drawn)	inconclusive: 0.398 µM [cytotoxic, full curve, poor fit]
CC1CCC(NC(=O)C2(C)Cc3ccccc3C(=O)N2Cc2ccccc2Cl)CC1 (stereo not drawn)	inconclusive: 31.6 µM [cytotoxic, single point]

SMILES	Potency
Cc1ccc(CCNC(=O)c2sc3ncccc3c2-n2cccc2)cc1	inconclusive: 0.398 µM [cytotoxic, partial curve]
CCc1cccc(NC(=O)Cn2nc(CC)n3c(cc4cc(C)ccc43)c2=O)c1	inconclusive: 0.01 µM [cytotoxic, full curve, poor fit]
COc1ccc(Cn2c(SCC(=O)NCc3ccccc3)nc3ccccc32)cc1	inactive
Cc1cccc(NC(=O)CSc2nc(-c3cccs3)cc(C(F)(F)F)c2C#N)c1	inconclusive: 31.6 µM [cytotoxic, single point]
Cc1ccc(-n2ncc(C(=O)NCCCN3CCc4ccccc4C3)c2C2CCN(C(=O)OC(C)(C)C)CC2)c(C)c1	inconclusive: 20 µM [cytotoxic, partial curve]
CCOc1ccc(-c2nc3ccccc3c(=O)o2)cc1	active: 6.31 µM
Cc1ccc(Nc2nnc(SCC(=O)Nc3cccc(S(=O)(=O)N4CCCCC4)c3)s2)cc1	inconclusive: 28.2 µM [cytotoxic, single point]
Cn1c(=O)c2cc(C(=O)NC3CCCCCC3)sc2c2ccccc21	inconclusive: 12.6 µM [cytotoxic, partial curve]
CCOCCn1ccc2c(OCC(=O)Nc3cccc([N+](=O)[O-])c3)cccc2c1=O	inconclusive: 0.158 µM [cytotoxic, full curve, poor fit]
COc1cc(OC)c(NC(=O)c2cn(C3CCCC3)c(=O)c3c2c2ccccc2n3C)cc1Cl	inconclusive: 0.1 µM [cytotoxic, full curve, poor fit]
C#CCn1c(COc2ccccc2C)nc2ccccc21	inconclusive: 20 µM [cytotoxic, partial curve]
Cc1cc(Br)ccc1NC(=O)C(Cc1ccccc1)NS(=O)(=O)c1ccc(Br)s1 (stereo not drawn)	inconclusive: 11.2 µM [cytotoxic, single point]
COc1ccc(OCc2nc3ccccc3n2C(C)c2ccccc2)cc1 (stereo not drawn)	inconclusive: 15.8 µM [cytotoxic, partial curve]
O=C(CCCCCn1c(=O)[nH]c2ccccc2c1=O)NCc1cccc(Cl)c1	inconclusive: 3.55 µM [cytotoxic, single point]
O=C(Nc1ccc(Br)cc1)C1CCCN(S(=O)(=O)c2ccc(Br)s2)C1 (stereo not drawn)	inactive
COc1ccc(NC(=O)Cn2c(=O)n(CCCC(=O)NCc3ccccc3OC)c(=O)c3ccccc32)cc1Cl	inactive
Cn1c(NCCCCO)nc2c1c(=O)n(Cc1ccc(Cl)cc1)c(=O)n2C	inconclusive: 0.316 µM [cytotoxic, full curve, poor fit]
O=C(CN1C(=O)CCSc2ccc(S(=O)(=O)N3CCCC3)cc21)Nc1ccccc1	inconclusive: 0.199 µM [cytotoxic, full curve]
Cn1c(CN2CCCCC2)nc2cc(NC(=O)c3cccc(Br)c3)ccc21	inconclusive: 17.8 µM [cytotoxic, partial curve, poor fit]
CCc1nnc(NC(=O)c2nc(S(=O)(=O)Cc3cccc(C)c3)ncc2Cl)s1	inconclusive: 31.6 µM [cytotoxic, single point]
CCCn1c(SCc2nc(-c3ccccc3C)no2)nnc1-c1ccc(Cl)cc1	inconclusive: 0.005 µM [cytotoxic, full curve, poor fit]
